# Test results reported in PubChem BioAssay AID1347165 (National Center for Advancing Translational Sciences (NCATS), 2019).
# The campaign covered roughly 220,000 compounds. About 5,700 (2.6%) were called active. The shares of active, inactive and inconclusive entries below differ from those in the screen. Calls come from the whole dose curve; as a rule, active = well fitted inhibition curve with a large enough effect; inconclusive = small, poorly fitted or top-dose-only effect; inactive = no such curve, though single readings can be large or run the other way. Potencies of inconclusive entries are doubtful fits and often do not repeat.
# Molecular target: Lysine-specific demethylase 5B (Homo sapiens) (UniProt Q9UGL1)
# UniProt Q9UGL1, sequence (Q9UGL1 whole entry, looked up): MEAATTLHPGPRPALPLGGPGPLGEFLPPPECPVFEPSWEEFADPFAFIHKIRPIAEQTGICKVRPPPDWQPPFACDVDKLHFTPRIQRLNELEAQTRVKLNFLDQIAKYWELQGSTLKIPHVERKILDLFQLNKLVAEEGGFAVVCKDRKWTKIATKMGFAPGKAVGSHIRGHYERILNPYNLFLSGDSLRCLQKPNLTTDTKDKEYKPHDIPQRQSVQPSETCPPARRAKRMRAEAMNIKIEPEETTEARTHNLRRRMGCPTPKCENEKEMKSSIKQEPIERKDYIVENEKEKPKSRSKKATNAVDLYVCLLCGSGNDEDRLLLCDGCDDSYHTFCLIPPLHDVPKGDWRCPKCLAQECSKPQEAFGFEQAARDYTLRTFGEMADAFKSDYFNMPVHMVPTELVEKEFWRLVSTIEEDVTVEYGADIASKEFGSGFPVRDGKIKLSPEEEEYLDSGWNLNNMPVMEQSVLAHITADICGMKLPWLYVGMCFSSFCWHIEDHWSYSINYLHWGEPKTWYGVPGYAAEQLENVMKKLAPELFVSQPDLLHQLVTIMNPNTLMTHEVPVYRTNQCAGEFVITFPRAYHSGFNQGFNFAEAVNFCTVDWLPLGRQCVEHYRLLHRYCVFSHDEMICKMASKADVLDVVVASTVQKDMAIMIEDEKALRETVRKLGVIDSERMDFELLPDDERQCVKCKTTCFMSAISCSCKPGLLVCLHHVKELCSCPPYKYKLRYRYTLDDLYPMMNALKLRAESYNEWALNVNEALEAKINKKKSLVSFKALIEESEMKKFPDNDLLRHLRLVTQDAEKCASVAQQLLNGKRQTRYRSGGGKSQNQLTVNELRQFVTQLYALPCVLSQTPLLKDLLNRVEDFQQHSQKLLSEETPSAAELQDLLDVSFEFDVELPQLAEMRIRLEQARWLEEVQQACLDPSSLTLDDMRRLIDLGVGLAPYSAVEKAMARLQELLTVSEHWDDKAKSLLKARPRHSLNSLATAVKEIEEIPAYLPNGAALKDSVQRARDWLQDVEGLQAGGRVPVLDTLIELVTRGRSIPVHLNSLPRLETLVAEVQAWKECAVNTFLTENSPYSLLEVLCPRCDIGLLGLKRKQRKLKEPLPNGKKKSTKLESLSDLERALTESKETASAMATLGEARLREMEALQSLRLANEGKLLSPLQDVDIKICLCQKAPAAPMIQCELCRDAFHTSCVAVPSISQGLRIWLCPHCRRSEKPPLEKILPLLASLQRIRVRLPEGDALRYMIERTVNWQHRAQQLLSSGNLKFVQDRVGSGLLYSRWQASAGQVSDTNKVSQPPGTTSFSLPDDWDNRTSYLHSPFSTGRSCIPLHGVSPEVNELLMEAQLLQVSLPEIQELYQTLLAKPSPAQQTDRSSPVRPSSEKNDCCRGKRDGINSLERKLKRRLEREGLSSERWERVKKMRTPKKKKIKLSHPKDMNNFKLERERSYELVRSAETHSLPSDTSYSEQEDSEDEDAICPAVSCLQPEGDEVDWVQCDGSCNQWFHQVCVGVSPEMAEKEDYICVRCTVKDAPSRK
# Assay: Primary screen for KDM5B Histone Demethylases FDH-coupled qHTS; note: nearly all actives have a fitted effect of over 70% in size; for activity change, negative = inhibition: 0% is about no effect
# Settings: FDH-coupled NADH fluorescence (FDH is formaldehyde dehydrogenase); activity change, negative = inhibition: at 57.7 µM (top of the series) unless noted
# Method in brief: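 KDM5BΔAP (200 nM final) in 50 mM HEPES pH 7.5, 0.01% Tween-20 was preincubated 10 min at RT with compound over a concentration range. Substrate mix (H3K4me3 12.5 µM, α-KG 25 µM, Fe²⁺, ascorbate, NAD⁺, FDH) was added, and NADH fluorescence change over 30 min gave dose-response curves.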
# Potency is the fitted concentration of half-maximal effect; tags give direction and shape of the fitted curve.
Compound,Potency,"activity change, negative = inhibition"
COc1ccc(NC(=O)O[C@@H]2CO[C@H]3[C@@H]2OC[C@@H]3NC(=O)Nc2cccc(C(F)(F)F)c2)cc1,inactive,
C=CCCC(CN1CCOCC1)Oc1ccc2cccc(OC)c2n1 (centres undefined),"inconclusive: 25.1 µM [inhibitor, single point]",
O=S(=O)(c1ccccc1)c1nc(-c2ccco2)oc1SCc1ccc(F)cc1,"inconclusive: 15.8 µM [inhibitor, partial curve, poor fit]",
CCCCC(=O)Nc1ccc(C(=O)OCc2cc(=O)n3ccsc3n2)cc1,"inconclusive: 25.1 µM [inhibitor, single point]",
CC(C)CNc1nc2ccccc2nc1NS(=O)(=O)c1ccccc1,"inconclusive: 35.5 µM [inhibitor, partial curve, poor fit]",
CCOc1ccc(Nc2oc(-c3ccc(COc4ccc(C)cc4)o3)nc2C#N)cc1,"inconclusive: 31.6 µM [inhibitor, partial curve, poor fit]",
CCc1ccc(C(=O)Nc2cccc(-c3nc4cc(C(C)C)ccc4o3)c2)cc1,inactive,
CC(=O)c1cccc(NC(=O)Nc2cc3c(cc2N2CCCC2)n(C)c(=O)n3C)c1,inactive,
N#Cc1ccc(CNCc2ccc(CN3CCCC3)cc2)cc1,inactive,
Cc1ccc(Cl)cc1NC(=O)c1ccc2nc(CCc3ccccc3)oc2c1,"inconclusive: 28.2 µM [inhibitor, single point]",
Cc1ccccc1CNC(=O)c1ccc(Cn2c(SCc3ccccc3)nc3cccnc32)cc1,"inconclusive: 35.5 µM [inhibitor, partial curve, poor fit]",
CN(CC1CCOCC1)C(=O)Nc1ccccc1Cl,inactive,
CCc1ccc2[nH]c(C(=O)O)cc2c1,"inconclusive: 28.2 µM [inhibitor, single point]",
CCN(CC)C(=O)Oc1ccc2c(C)c(-c3ccccc3)c(=O)oc2c1,"inconclusive: 28.2 µM [inhibitor, single point]",
COc1ccccc1Nc1nc(-c2ccc3c(c2)NC(=O)CO3)cs1,"inconclusive: 2 µM [inhibitor, full curve, poor fit]",
CCCOCc1cc(CN2CCN(c3ccccc3OC)CC2)c(O)c2ncccc12,"inconclusive: 50.1 µM [inhibitor, single point]",
CN(C)CCNC(=O)c1cc2ccccc2oc1=O,"inconclusive: 20 µM [inhibitor, partial curve, poor fit]",
O=C(NCc1ccc(Cl)cc1)c1cnc(N2CCOCC2)c2ccccc12,"inconclusive: 25.1 µM [inhibitor, single point]",
COC1CCN(c2ccc(C(=O)N3CCC(N4CCOCC4)CC3)cn2)CC1,inactive,
CCn1cc(C(=O)O)c(=O)c2cc(F)c(N3CCN(C(=S)NC(=O)c4cccc(F)c4)CC3)cc21,"inconclusive: 35.5 µM [inhibitor, single point]",
COc1ccc(C(=O)N2CCC(c3n[nH]c(=O)n3Cc3ccc(F)cc3)CC2)cc1F,inactive,
Cc1cnc(C)c(N2CCN(C(=O)[C@H]3CC[C@@H](N)C3)CC2)n1,active: 22.4 µM,

Compound,Potency,"activity change, negative = inhibition"
COc1ccc(CCNC(=O)Cn2ccn3nc(-c4ccc(F)cc4)c(CO)c3c2=O)cc1OC,"inconclusive: 25.1 µM [inhibitor, single point]",
CCc1noc(C(C)N2CCN(c3oc(C4CC4)nc3C#N)CC2)n1 (centres undefined),inactive,
COc1cccc(/C=N/NC(=O)Cn2cnc3c2c(=O)n(C)c(=O)n3C)c1OC,"inconclusive: 31.6 µM [inhibitor, partial curve, poor fit]",
Cc1cc(C)c2c(=O)n(CC(=O)Nc3cccc(F)c3)sc2n1,"inconclusive: 11.2 µM [inhibitor, partial curve, poor fit]",
O=C(COC(=O)c1ccc2ccccc2n1)c1ccccc1,"inconclusive: 35.5 µM [inhibitor, single point]",
Cc1ccc(CSc2nncn3c2cc2sccc23)cc1,,inconclusive: -33.3% [inhibitor]
COC(=O)c1ccc(C(=O)OC)c(NC(=O)CCS(=O)(=O)Cc2ccccc2)c1,"inconclusive: 25.1 µM [inhibitor, single point]",
COc1cc2c(cc1OC)/C(=C/S(=O)(=O)c1cccc(C)c1)NCC2,"inconclusive: 39.8 µM [inhibitor, single point]",
Cc1cccc(C)c1NC(=O)CN(C)S(=O)(=O)c1ccc2[nH]c3c(c2c1)CCCC3,"inconclusive: 7.94 µM [inhibitor, partial curve, poor fit]",
CCS(=O)(=O)c1ccc2oc([C@H]3CCN(Cc4cccc(Cl)c4)C3)nc2c1,"inconclusive: 39.8 µM [inhibitor, single point]",
COCCCNC(=O)c1cc(=O)[nH]c2ccccc12,"inconclusive: 25.1 µM [inhibitor, single point]",
O=C1NC2(CCCN(Cc3ccccc3C(F)(F)F)C2)COc2ccccc21 (centres undefined),active: 35.5 µM,
COCCNC(=O)CCc1c(C)nn(-c2ccc(OC)cc2)c1Oc1ccccc1F,inactive,
CCN(CC)C1CCOC2(CCN(C(=O)c3ccncc3)CC2)C1 (centres undefined),"inconclusive: 39.8 µM [inhibitor, single point]",
Cc1[nH]c2ccc(C(=O)NCCOc3ccccc3)cc2c1C,inactive,
CC(C)c1noc(-c2ccn3c(CNC(=O)c4ccc(F)c(Cl)c4)nnc3c2)n1,"inconclusive: 0.708 µM [inhibitor, partial curve, poor fit]",
COc1ccc(OCc2nc(C)c(CCO)c(=O)n2CC(=O)N(C)c2cccc(C)c2)cc1,inactive,
O=C(Cn1c(=O)n(Cc2ccc(C(=O)NCc3ccc4c(c3)OCO4)cc2)c(=O)c2ccccc21)Nc1cccc(Cl)c1,"inconclusive: 6.31 µM [inhibitor, partial curve, poor fit]",
COc1ncccc1Nc1cnc2ccc(-c3ccc(F)cc3)nn12,inactive,
O=C(O)CCCC(=O)c1ccc2c(c1)OCCOCCOCCOCCO2,inactive,
CNC(=O)CSc1ccccc1OC,inactive,
COc1ccccc1NC(=O)Cn1c(=O)n(-c2cccc(Cl)c2)c(=O)c2sc3ccccc3c21,"inconclusive: 2.82 µM [inhibitor, partial curve, poor fit]",
